Laboratory results as given in PubChem BioAssay AID1461 (National Center for Advancing Translational Sciences (NCATS), 2008).
The whole screen tested about 220,000 compounds, of which about 2,300 (1%) were called active. Inconclusive results, whose numbers are uncertain, are shown with a selection of clear calls. The call rests on the fitted dose curve; in most records, active means well fitted inhibition curve with a large enough effect; inconclusive means small, poorly fitted or top-dose-only effect, or effect the other way; inactive means no such curve, though single readings can be large or run the other way. No potency is given beside an inconclusive call; the fits are too rough.

target: Neuropeptide S receptor (Homo sapiens) (UniProt Q6W5P4); experiment: qHTS Assay for Antagonists of the Neuropeptide S Receptor: cAMP Signal Transduction; conditions: CHO-NPSR cells, cAMP TR-FRET, antagonist mode; activity change, negative = inhibition: at 38.3 µM (top of the series) unless noted; further: nearly all actives have a fitted effect of over 50% in size
On the % scale 0 is the no-effect control and ±100 the full control effect; potency means the concentration at half of the fitted maximal effect; tags describe the fitted curve by direction and shape.

Chain of UniProt Q6W5P4 (Q6W5P4 whole entry, looked up): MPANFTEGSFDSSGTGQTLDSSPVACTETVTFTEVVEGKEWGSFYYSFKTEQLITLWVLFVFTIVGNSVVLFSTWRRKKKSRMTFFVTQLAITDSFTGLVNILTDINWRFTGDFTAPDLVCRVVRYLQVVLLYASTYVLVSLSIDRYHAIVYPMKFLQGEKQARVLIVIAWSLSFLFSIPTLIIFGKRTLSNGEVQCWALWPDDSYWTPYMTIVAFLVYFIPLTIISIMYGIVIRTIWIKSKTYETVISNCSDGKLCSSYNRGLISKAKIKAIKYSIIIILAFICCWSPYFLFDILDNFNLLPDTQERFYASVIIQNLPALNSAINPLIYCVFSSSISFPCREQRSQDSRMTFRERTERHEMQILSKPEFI

Structure (SMILES) | Potency | activity change, negative = inhibition
CCCCNC(=O)c1sc2nc(C)cc(COC)c2c1-n1cccc1 | inconclusive [inhibitor, partial curve, poor fit] | –
CC(C)C(NS(=O)(=O)c1cccc(C(F)(F)F)c1)C(=O)O (stereo not drawn) | inconclusive [activator, single point] | –
N#CCSc1nc(-c2ccccc2)c2cc(Cl)ccc2n1 | inconclusive [inhibitor, single point] | –
O=C(CCl)N1CCN2C(=O)c3ccccc3C12c1ccc(Cl)cc1 (stereo not drawn) | inconclusive [inhibitor, single point] | –
COc1ccc(Nc2nc(N3CCCCC3)nc3ccccc23)c(OC)c1 | inconclusive [inhibitor, single point] | –
CC1CC2=C(NC(=S)NC2c2cccc(F)c2)/C(=C/c2cccc(F)c2)C1 (stereo not drawn) | – | inactive: -52.5%
CCOC(=O)c1c(C=O)c(C)n(Cc2ccc(C)cc2)c1C | inconclusive [inhibitor, partial curve, poor fit] | –
CN(C)CCNS(=O)(=O)c1ccc(Cl)cc1 | inconclusive [inhibitor, single point] | –
CC(C)(C)c1ccc(C(=O)CC(Sc2ccc(Cl)cc2)C(=O)O)cc1 (stereo not drawn) | inconclusive [inhibitor, single point] | –
Nc1cc(C(=O)O)c(N)c2c1C(=O)c1ccccc1C2=O | active: 3.16 µM | –
Cc1cc(NC(=O)c2cc3ccccc3o2)cc(C)c1OCC(=O)N1CCOCC1 | – | inactive: -7.3% [at 46.1 µM]
Cc1oc(-c2ccccc2F)nc1CN1CCC(C(=O)NC2CCCc3ccccc32)CC1 (stereo not drawn) | inconclusive [inhibitor, single point] | –
N#Cc1c(N(CCO)CCO)nc(N)c2c(N)nc3c(c12)CC(=O)N3Cc1cccs1 | – | inactive: 8.88% [at 7.67 µM]
O=C(COc1ccccc1)N(Cc1ccccc1)c1nc(-c2ccccc2)cs1 | inconclusive [inhibitor, single point] | –
CC(C)c1ccc(N=C2N=C(N)c3ccccc32)cc1 | inconclusive [activator, single point] | –
CCn1c(=S)sc2c(=O)n(-c3ccccc3)c(SCC(=O)NCc3ccco3)nc21 | inconclusive [inhibitor, single point] | –
O=C(c1ccc(CNc2c(N3CCCC3)c(=O)c2=O)cc1)N1CC=C(c2ccccc2)CC1 | inconclusive [inhibitor, single point] | –
CCOc1ccccc1OCCCOc1ccc([N+](=O)[O-])cc1Cl | inconclusive [inhibitor, partial curve] | –
COc1cc(C(=S)N2CCC(C(N)=O)CC2)ccc1O | – | inactive: -8.66% [at 46.1 µM]
CCc1ccc(C2C(C(C)=O)=C(C(=O)OC)Nc3nnnn32)cc1 (stereo not drawn) | inconclusive [inhibitor, single point] | –
COC(=O)c1cccc(C23CC4(C2)[C@H](CN(C)[C@@H]4c2ccccc2)C3c2ccc(C(F)(F)F)cc2)c1 (stereo partly drawn) | – | inactive: -29.5%
CCOc1ccc(-c2cc(C(=O)OC)[nH]n2)cc1 | – | inactive: 6.78%

Structure (SMILES) | Potency | activity change, negative = inhibition
O=C1c2ccccc2C(=O)N1CCCCN(C(=O)c1ccc([N+](=O)[O-])cc1)c1ccc(Cl)cc1 | inconclusive [inhibitor, partial curve] | –
COc1ccc(-c2noc(CCC(=O)N3CCN(c4cccc(C(F)(F)F)c4)CC3)n2)cc1 | inconclusive [inhibitor, partial curve, poor fit] | –
COc1cccc(OC)c1OCc1cc(C2C3CCCC=C3C(C#N)=C(N)C2(C#N)C#N)c(C)cc1C (stereo not drawn) | active: 3.16 µM | –
Cc1cccc(C)c1N1CCN(C(=O)N2CCOCC2)CC1 | – | inactive: -0.171%
O=C(Nc1ccc(S(=O)(=O)N2CCC(C(=O)NC3CCCCC3)CC2)cc1)c1ccco1 | – | inactive: -17% [at 46.1 µM]
Cn1c(=O)c2c(nc(CN3CCC(C(N)=O)CC3)n2Cc2ccccc2Cl)n(C)c1=O | – | inactive: -9.24% [at 46.1 µM]
Cc1[nH]c(=O)[nH]c(=O)c1S(=O)(=O)Nc1ccc(Oc2ccccc2)cc1 | inconclusive [inhibitor, single point] | –
CCOC(=O)c1[nH]c2cc3c(cc2c1NC(=O)CN1CCC(C)CC1)OCO3 | inconclusive [inhibitor, partial curve, poor fit] | –
O=C(Nc1ccc2c(c1)OCO2)C1CCN(S(=O)(=O)c2ccc3c(c2)OCCO3)CC1 | inconclusive [inhibitor, partial curve, poor fit] | –
CC[C@@H](C)C(NC(=O)OC(C)(C)C)c1cn([C@@H](CCC(=O)OC(C)(C)C)C(=O)N2CCN(C(=O)OC(C)(C)C)CC2)nn1 (stereo partly drawn) | – | inactive: 54.1%
COc1cc2c(cc1NC(=S)Nc1cccc(C)c1)oc1ccccc12 | inconclusive [inhibitor, partial curve] | –
Cc1ccc2c(c1)Oc1ccc(NC(=O)CCCl)cc1C(=O)N2 | – | inactive: -8.32%
CCc1ccc2nc(/N=C(\N)NC(=O)c3ccccc3)nc(C)c2c1 | inconclusive [inhibitor, single point] | –
COc1ccc2c(c1)c(CC(=O)O)c(C)n2Cc1ccc(F)cc1 | inconclusive [inhibitor, full curve] | –
CC1(C)c2ccccc2N2CC(=O)N[C@@]21/C=C/C=C/c1ccccc1 | inconclusive [inhibitor, single point] | –
S=C(N/N=C1\CCc2ccccc21)NC1CCCCC1 | – | inactive: -38.1%
COc1cc(/C=N/NC(=S)NC2CC3C=CC2C3)cc(OC)c1OC (stereo not drawn) | inconclusive [activator, partial curve] | –
O=C(Nc1ccccc1)C1=C[C@@H](C2CCCCC2)C[C@@H](OCc2ccc(CO)cc2)O1 | inconclusive [activator, partial curve] | –
COc1ccccc1Nc1nc(-c2sc(NC(=O)C(C)(C)C)nc2C)cs1 | inconclusive [inhibitor, partial curve, poor fit] | –
O=C(CN1CCCC1)Nc1ccccc1C(=O)c1ccccc1 | – | inactive: -17.1%
Cc1cccnc1NC(=O)c1ccc(S(=O)(=O)N2CC(C)OC(C)C2)cc1 (stereo not drawn) | inconclusive [inhibitor, single point] | –
